# Some of the results follow.
# B1: Epa13 (Candida glabrata) (protein)
# chain: MGSSHHHHHHSSGLVPRGSHMASDSSENGYAHGCSPSIRAKLKPGLSMEIYSYALRPTDDHCWDSAYLDPMFPRTGYLTHKLLGKAEGIIGPLNFLAKNPACIPAVSTLPLAFHFPKPFTITNFTMLLYGYLSPKKTGKYTFKLLADDLLLMNFGADNAFDCCSHDATKDNIGEYVAYSVWPGVNKNVTVYLESGIYYPLRLFFNNRDAIAQLDFAYYFNDSPIRQTDFSGMFFSIPDSVKCPANI
# Key:
# Assay in all cases: glycan array binding signal (z-score within array); higher = stronger binding
# Settings in all cases: glycan notation: IUPAC condensed, linker removed
# [1] = biological target: GlcNAc(a1-4)Gal(b1-3)GlcNAc
# Procedure, shortened: (§1)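 Glycan array binding is given as a within-array Z-score, which can be read as non-binding when negative. The arrays, 3228 of them, came from the Consortium for Functional Glycomics database and were retained only where the protein sequence was available. Z-scores were averaged across arrays of the same protein sequence at different concentrations or buffers and across linkers.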
# [2] = biological target: GlcNAc(a1-4)Gal(b1-4)GalNAc
# Procedure, shortened: as §1
# [3] = biological target: GlcNAc(a1-4)Gal(b1-4)GlcNAc
# Procedure, shortened: as §1
# [4] = biological target: GlcNAc(a1-4)Gal(b1-4)GlcNAc(b1-3)Gal(b1-4)Glc
# Procedure, shortened: as §1
# [5] = biological target: GlcNAc(a1-4)Gal(b1-4)GlcNAc(b1-3)Gal(b1-4)GlcNAc
# Procedure, shortened: as §1
# [6] = biological target: GlcNAc(a1-4)Gal(b1-4)GlcNAc(b1-3)Gal(b1-4)GlcNAc(b1-3)Gal(b1-4)GlcNAc
# Procedure, shortened: as §1
# [7] = biological target: GlcNAc(a1-4)Gal(b1-4)GlcNAc(b1-3)Gal(b1-4)[Fuc(a1-3)]GlcNAc(b1-3)Gal(b1-4)[Fuc(a1-3)]GlcNAc
# Procedure, shortened: as §1
# [8] = biological target: GlcNAc(a1-6)Gal(b1-4)GlcNAc
# Procedure, shortened: as §1
# [9] = biological target: GlcNAc(b1-2)Gal(b1-3)GalNAc
# Procedure, shortened: as §1
# [10] = biological target: GlcNAc(b1-2)Man(a1-3)[GlcNAc(b1-2)Man(a1-6)]Man(b1-4)GlcNAc(b1-4)GlcNAc
# Procedure, shortened: as §1
# [11] = biological target: GlcNAc(b1-2)Man(a1-3)[GlcNAc(b1-2)Man(a1-6)]Man(b1-4)GlcNAc(b1-4)[Fuc(a1-6)]GlcNAc
# Procedure, shortened: as §1
# [12] = biological target: GlcNAc(b1-2)Man(a1-3)[GlcNAc(b1-4)][GlcNAc(b1-2)Man(a1-6)]Man(b1-4)GlcNAc(b1-4)GlcNAc
# Procedure, shortened: as §1
# [13] = biological target: GlcNAc(b1-2)Man(a1-3)[GlcNAc(b1-4)][GlcNAc(b1-2)Man(a1-6)]Man(b1-4)GlcNAc(b1-4)[Fuc(a1-6)]GlcNAc
# Procedure, shortened: as §1
# [14] = biological target: GlcNAc(b1-2)[GlcNAc(b1-4)]Man(a1-3)[GlcNAc(b1-2)Man(a1-6)]Man(b1-4)GlcNAc(b1-4)GlcNAc
# Procedure, shortened: as §1
# [15] = biological target: GlcNAc(b1-2)[GlcNAc(b1-4)]Man(a1-3)[GlcNAc(b1-4)][GlcNAc(b1-2)Man(a1-6)]Man(b1-4)GlcNAc(b1-4)GlcNAc
# Procedure, shortened: as §1
# [16] = biological target: GlcNAc(b1-2)[GlcNAc(b1-4)]Man(a1-3)[GlcNAc(b1-4)][GlcNAc(b1-2)[GlcNAc(b1-6)]Man(a1-6)]Man(b1-4)GlcNAc(b1-4)GlcNAc
# Procedure, shortened: as §1
# [17] = biological target: GlcNAc(b1-2)[GlcNAc(b1-4)]Man(a1-3)[GlcNAc(b1-4)][GlcNAc(b1-2)[GlcNAc(b1-6)]Man(a1-6)]Man(b1-4)GlcNAc(b1-4)[Fuc(a1-6)]GlcNAc
# Procedure, shortened: as §1
# [18] = biological target: GlcNAc(b1-2)[GlcNAc(b1-6)]Man(a1-6)[GlcNAc(b1-2)Man(a1-3)]Man(b1-4)GlcNAc(b1-4)GlcNAc
# Procedure, shortened: as §1
# [19] = biological target: GlcNAc(b1-2)[GlcNAc(b1-6)]Man(a1-6)[GlcNAc(b1-2)Man(a1-3)]Man(b1-4)GlcNAc(b1-4)[Fuc(a1-6)]GlcNAc
# Procedure, shortened: as §1
# [20] = biological target: GlcNAc(b1-2)[GlcNAc(b1-6)]Man(a1-6)[GlcNAc(b1-4)][GlcNAc(b1-2)Man(a1-3)]Man(b1-4)GlcNAc(b1-4)GlcNAc
# Procedure, shortened: as §1
# GlcNAc(b1-3)Fuc = biological target: GlcNAc(b1-3)Fuc
# Procedure, shortened: as §1
# GlcNAc(b1-3)Gal = biological target: GlcNAc(b1-3)Gal
# Procedure, shortened: as §1
# [21] = biological target: GlcNAc(b1-3)Gal(b1-3)GalNAc
# Procedure, shortened: as §1
# GlcNAc(b1-3)Gal(b1-4)Glc = biological target: GlcNAc(b1-3)Gal(b1-4)Glc
# Procedure, shortened: as §1
# [22] = biological target: GlcNAc(b1-3)Gal(b1-4)GlcNAc
# Procedure, shortened: as §1
# [23] = biological target: GlcNAc(b1-3)Gal(b1-4)GlcNAc(b1-2)Man(a1-3)[GlcNAc(b1-3)Gal(b1-4)GlcNAc(b1-2)Man(a1-6)]Man(b1-4)GlcNAc(b1-4)GlcNAc
# Procedure, shortened: as §1
# [24] = biological target: GlcNAc(b1-3)Gal(b1-4)GlcNAc(b1-2)Man(a1-3)[GlcNAc(b1-3)Gal(b1-4)GlcNAc(b1-2)Man(a1-6)]Man(b1-4)GlcNAc(b1-4)[Fuc(a1-6)]GlcNAc
# Procedure, shortened: as §1
# [25] = biological target: GlcNAc(b1-3)Gal(b1-4)GlcNAc(b1-2)[GlcNAc(b1-3)Gal(b1-4)GlcNAc(b1-6)]Man(a1-6)[GlcNAc(b1-3)Gal(b1-4)GlcNAc(b1-2)Man(a1-3)]Man(b1-4)GlcNAc(b1-4)GlcNAc
# Procedure, shortened: as §1
# [26] = biological target: GlcNAc(b1-3)Gal(b1-4)GlcNAc(b1-3)Gal(b1-4)GlcNAc
# Procedure, shortened: as §1
# [27] = biological target: GlcNAc(b1-3)Gal(b1-4)GlcNAc(b1-3)Gal(b1-4)GlcNAc(b1-2)Man(a1-3)[GlcNAc(b1-3)Gal(b1-4)GlcNAc(b1-3)Gal(b1-4)GlcNAc(b1-2)Man(a1-6)]Man(b1-4)GlcNAc(b1-4)GlcNAc
# Procedure, shortened: as §1
# [28] = biological target: GlcNAc(b1-3)Gal(b1-4)GlcNAc(b1-3)Gal(b1-4)GlcNAc(b1-2)Man(a1-3)[GlcNAc(b1-3)Gal(b1-4)GlcNAc(b1-3)Gal(b1-4)GlcNAc(b1-2)Man(a1-6)]Man(b1-4)GlcNAc(b1-4)[Fuc(a1-6)]GlcNAc
# Procedure, shortened: as §1
# [29] = biological target: GlcNAc(b1-3)Gal(b1-4)GlcNAc(b1-3)Gal(b1-4)GlcNAc(b1-2)[GlcNAc(b1-3)Gal(b1-4)GlcNAc(b1-3)Gal(b1-4)GlcNAc(b1-6)]Man(a1-6)[GlcNAc(b1-3)Gal(b1-4)GlcNAc(b1-3)Gal(b1-4)GlcNAc(b1-2)Man(a1-3)]Man(b1-4)GlcNAc(b1-4)[Fuc(a1-6)]GlcNAc
# Procedure, shortened: as §1
# [30] = biological target: GlcNAc(b1-3)Gal(b1-4)GlcNAc(b1-3)Gal(b1-4)GlcNAc(b1-3)Gal(b1-4)GlcNAc(b1-2)Man(a1-3)[GlcNAc(b1-3)Gal(b1-4)GlcNAc(b1-3)Gal(b1-4)GlcNAc(b1-3)Gal(b1-4)GlcNAc(b1-2)Man(a1-6)]Man(b1-4)GlcNAc(b1-4)GlcNAc
# Procedure, shortened: as §1
# [31] = biological target: GlcNAc(b1-3)Gal(b1-4)GlcNAc(b1-3)Gal(b1-4)GlcNAc(b1-3)Gal(b1-4)GlcNAc(b1-2)Man(a1-3)[GlcNAc(b1-3)Gal(b1-4)GlcNAc(b1-3)Gal(b1-4)GlcNAc(b1-3)Gal(b1-4)GlcNAc(b1-2)Man(a1-6)]Man(b1-4)GlcNAc(b1-4)[Fuc(a1-6)]GlcNAc
# Procedure, shortened: as §1
# [32] = biological target: GlcNAc(b1-3)Gal(b1-4)GlcNAc(b1-3)Gal(b1-4)GlcNAc(b1-3)Gal(b1-4)GlcNAc(b1-2)[GlcNAc(b1-3)Gal(b1-4)GlcNAc(b1-3)Gal(b1-4)GlcNAc(b1-3)Gal(b1-4)GlcNAc(b1-6)]Man(a1-6)[GlcNAc(b1-3)Gal(b1-4)GlcNAc(b1-3)Gal(b1-4)GlcNAc(b1-3)Gal(b1-4)GlcNAc(b1-2)Man(a1-3)]Man(b1-4)GlcNAc(b1-4)[Fuc(a1-6)]GlcNAc
# Procedure, shortened: as §1
# [33] = biological target: GlcNAc(b1-3)Gal(b1-4)GlcNAc(b1-3)Gal(b1-4)GlcNAc(b1-3)Gal(b1-4)GlcNAc(b1-3)Gal(b1-4)GlcNAc(b1-2)Man(a1-3)[GlcNAc(b1-3)Gal(b1-4)GlcNAc(b1-3)Gal(b1-4)GlcNAc(b1-3)Gal(b1-4)GlcNAc(b1-3)Gal(b1-4)GlcNAc(b1-2)Man(a1-6)]Man(b1-4)GlcNAc(b1-4)GlcNAc
# Procedure, shortened: as §1
# [34] = biological target: GlcNAc(b1-3)Gal(b1-4)GlcNAc(b1-3)Gal(b1-4)GlcNAc(b1-3)Gal(b1-4)GlcNAc(b1-3)Gal(b1-4)GlcNAc(b1-2)Man(a1-3)[GlcNAc(b1-3)Gal(b1-4)GlcNAc(b1-3)Gal(b1-4)GlcNAc(b1-3)Gal(b1-4)GlcNAc(b1-3)Gal(b1-4)GlcNAc(b1-2)Man(a1-6)]Man(b1-4)GlcNAc(b1-4)[Fuc(a1-6)]GlcNAc
# Procedure, shortened: as §1
# [35] = biological target: GlcNAc(b1-3)Gal(b1-4)GlcNAc(b1-3)Gal(b1-4)GlcNAc(b1-3)Gal(b1-4)GlcNAc(b1-3)Gal(b1-4)GlcNAc(b1-2)[GlcNAc(b1-3)Gal(b1-4)GlcNAc(b1-3)Gal(b1-4)GlcNAc(b1-3)Gal(b1-4)GlcNAc(b1-3)Gal(b1-4)GlcNAc(b1-6)]Man(a1-6)[GlcNAc(b1-3)Gal(b1-4)GlcNAc(b1-3)Gal(b1-4)GlcNAc(b1-3)Gal(b1-4)GlcNAc(b1-3)Gal(b1-4)GlcNAc(b1-2)Man(a1-3)]Man(b1-4)GlcNAc(b1-4)[Fuc(a1-6)]GlcNAc
# Procedure, shortened: as §1
binder,measurement,setting,value
B1,glycan array binding signal (z-score),[1],-0.421
same,glycan array binding signal (z-score),[2],-0.031
same,glycan array binding signal (z-score),[3],-0.274
same,glycan array binding signal (z-score),[4],-0.672
same,glycan array binding signal (z-score),[5],0.04
same,glycan array binding signal (z-score),[6],-0.382
same,glycan array binding signal (z-score),[7],-0.218
same,glycan array binding signal (z-score),[8],-0.205
same,glycan array binding signal (z-score),[9],-0.603
same,glycan array binding signal (z-score),[10],-0.354
same,glycan array binding signal (z-score),[11],-0.136
same,glycan array binding signal (z-score),[12],-0.041
same,glycan array binding signal (z-score),[13],0.145
same,glycan array binding signal (z-score),[14],-0.393
same,glycan array binding signal (z-score),[15],-0.299
same,glycan array binding signal (z-score),[16],-0.275
same,glycan array binding signal (z-score),[17],-0.346
same,glycan array binding signal (z-score),[18],-0.545
same,glycan array binding signal (z-score),[19],-0.456
same,glycan array binding signal (z-score),[20],-0.418
same,glycan array binding signal (z-score),GlcNAc(b1-3)Fuc,-0.055
same,glycan array binding signal (z-score),GlcNAc(b1-3)Gal,-0.445
same,glycan array binding signal (z-score),[21],-0.023
same,glycan array binding signal (z-score),GlcNAc(b1-3)Gal(b1-4)Glc,-0.135
same,glycan array binding signal (z-score),[22],-0.306
same,glycan array binding signal (z-score),[23],-0.353
same,glycan array binding signal (z-score),[24],-0.222
same,glycan array binding signal (z-score),[25],0.485
same,glycan array binding signal (z-score),[26],-0.069
same,glycan array binding signal (z-score),[27],0.456
same,glycan array binding signal (z-score),[28],0.201
same,glycan array binding signal (z-score),[29],-0.03
same,glycan array binding signal (z-score),[30],-0.119
same,glycan array binding signal (z-score),[31],0.212
same,glycan array binding signal (z-score),[32],0.144
same,glycan array binding signal (z-score),[33],0.07
same,glycan array binding signal (z-score),[34],-0.207
same,glycan array binding signal (z-score),[35],0.231

# Reference: the supplement of paper PMC8728848
